Data as given in the GPR68 mutational scans of Howard et al. (2025).
Scores with a large standard error are left out. The source holds two more conditions with little spread; they are left out. Read del as a deletion of the residues named and ins as an insertion between two positions. For part of these data: The data file names ogerin without a concentration.

B1: GPR68, Q15743 (parent)
chain: MGNITADNSSMSCTIDHTIHQTLAPVVYVTVLVVGFPANCLSLYFGYLQIKARNELGVYLCNLTVADLFYICSLPFWLQYVLQHDNWSHGDLSCQVCGILLYENIYISVGFLCCISVDRYLAVAHPFRFHQFRTLKAAVGVSVVIWAKELLTSIYFLMHEEVIEDENQHRVCFEHYPIQAWQRAINYYRFLVGFLFPICLLLASYQGILRAVRRSHGTQKSRKDQIQRLVLSTVVIFLACFLPYHVLLLVRSVWEASCDFAKGVFNAYHFSLLLTSFNCVADPVLYCFVSETTHRDLARLRGACLAFLTCSRTGRAREAYPLGAPEASGKSGAQGEEPELLTKLHPAFQTPNSPGSGGFPTGRLA

How the values were obtained:
[1] = variants of: B1; assay: cAMP reporter score (Enrich2 score, wild type = 0); higher = more signal; HEK293T, FACS bins
[2] = variants of: B1; assay: surface expression score (Enrich2 score, wild type = 0); higher = more signal; HEK293T, FACS bins

L68P
cAMP reporter score ([1]; pH 5.5): -1.31
cAMP reporter score ([1]; pH 6, modulator: ogerin): -2.33
cAMP reporter score ([1]; pH 6.5, modulator: ogerin): -0.956
surface expression score [2]: -3.27

L68Q
cAMP reporter score ([1]; pH 5.5): -2.1
cAMP reporter score ([1]; pH 6): -1.79
cAMP reporter score ([1]; pH 6, modulator: ogerin): -1.54
cAMP reporter score ([1]; pH 6.5, modulator: ogerin): -1.59
surface expression score [2]: -1.89

L68R
cAMP reporter score ([1]; pH 5.5): -1.95
cAMP reporter score ([1]; pH 6): -1.07
cAMP reporter score ([1]; pH 6, modulator: ogerin): -2.28
cAMP reporter score ([1]; pH 6.5, modulator: ogerin): -0.601
surface expression score [2]: -2.45

L68S
cAMP reporter score ([1]; pH 5.5): -1.37
cAMP reporter score ([1]; pH 6): -0.777
cAMP reporter score ([1]; pH 6, modulator: ogerin): -1.4
cAMP reporter score ([1]; pH 6.5, modulator: ogerin): -0.137
surface expression score [2]: -2.55

L68T
cAMP reporter score ([1]; pH 5.5): -0.28
cAMP reporter score ([1]; pH 6): -0.634
cAMP reporter score ([1]; pH 6, modulator: ogerin): -0.294
cAMP reporter score ([1]; pH 6.5, modulator: ogerin): -0.759
surface expression score [2]: -1.76

L68V
cAMP reporter score ([1]; pH 5.5): -1.38
cAMP reporter score ([1]; pH 6): -0.843
cAMP reporter score ([1]; pH 6, modulator: ogerin): -1.26
cAMP reporter score ([1]; pH 6.5, modulator: ogerin): -0.362
surface expression score [2]: -1.97

L68W
cAMP reporter score ([1]; pH 5.5): -0.802
cAMP reporter score ([1]; pH 6): -1.97
cAMP reporter score ([1]; pH 6, modulator: ogerin): -2.15
cAMP reporter score ([1]; pH 6.5, modulator: ogerin): -1.44
surface expression score [2]: -1.45

L68Y
cAMP reporter score ([1]; pH 5.5): -1.4
cAMP reporter score ([1]; pH 6): -1.26
cAMP reporter score ([1]; pH 6, modulator: ogerin): -1.86
cAMP reporter score ([1]; pH 6.5, modulator: ogerin): -0.768
surface expression score [2]: -1.47

L68_F69insGSG
cAMP reporter score ([1]; pH 5.5): -2.13
cAMP reporter score ([1]; pH 6): -1.86
cAMP reporter score ([1]; pH 6, modulator: ogerin): -2.34
cAMP reporter score ([1]; pH 6.5, modulator: ogerin): -1.07
surface expression score [2]: -1.99

F69A
cAMP reporter score ([1]; pH 5.5): 1.11
cAMP reporter score ([1]; pH 6): -0.073
cAMP reporter score ([1]; pH 6, modulator: ogerin): -0.256
cAMP reporter score ([1]; pH 6.5, modulator: ogerin): -0.392
surface expression score [2]: 0.168

F69C
cAMP reporter score ([1]; pH 5.5): -0.497
cAMP reporter score ([1]; pH 6): -1.49
cAMP reporter score ([1]; pH 6, modulator: ogerin): 0.606
cAMP reporter score ([1]; pH 6.5, modulator: ogerin): -0.41
surface expression score [2]: 0.784

F69D
cAMP reporter score ([1]; pH 5.5): -2.26
cAMP reporter score ([1]; pH 6): -1.79
cAMP reporter score ([1]; pH 6, modulator: ogerin): -1.93
cAMP reporter score ([1]; pH 6.5, modulator: ogerin): -0.462
surface expression score [2]: -3.14

F69E
cAMP reporter score ([1]; pH 5.5): -1.9
cAMP reporter score ([1]; pH 6): -1.44
cAMP reporter score ([1]; pH 6.5, modulator: ogerin): -1.93
surface expression score [2]: -2.62

F69G
cAMP reporter score ([1]; pH 5.5): -0.298
cAMP reporter score ([1]; pH 6): -0.936
surface expression score [2]: -1.32

F69H
cAMP reporter score ([1]; pH 5.5): -0.083
cAMP reporter score ([1]; pH 6): -0.449
cAMP reporter score ([1]; pH 6, modulator: ogerin): -0.073
cAMP reporter score ([1]; pH 6.5, modulator: ogerin): -0.431
surface expression score [2]: -1.88

F69I
cAMP reporter score ([1]; pH 5.5): -0.19
cAMP reporter score ([1]; pH 6): -0.853
cAMP reporter score ([1]; pH 6, modulator: ogerin): -0.937
cAMP reporter score ([1]; pH 6.5, modulator: ogerin): -1.06
surface expression score [2]: 1.75

F69K
cAMP reporter score ([1]; pH 5.5): -1.75
cAMP reporter score ([1]; pH 6): -0.875
cAMP reporter score ([1]; pH 6, modulator: ogerin): -0.718
cAMP reporter score ([1]; pH 6.5, modulator: ogerin): -0.969
surface expression score [2]: -2.35

F69L
cAMP reporter score ([1]; pH 5.5): -0.364
cAMP reporter score ([1]; pH 6): 1.09
cAMP reporter score ([1]; pH 6, modulator: ogerin): -0.549
cAMP reporter score ([1]; pH 6.5, modulator: ogerin): -0.353
surface expression score [2]: 0.166

F69M
cAMP reporter score ([1]; pH 5.5): 0.961
cAMP reporter score ([1]; pH 6): 0.3
cAMP reporter score ([1]; pH 6, modulator: ogerin): 0.181
cAMP reporter score ([1]; pH 6.5, modulator: ogerin): -0.533
surface expression score [2]: 1.25

F69N
cAMP reporter score ([1]; pH 5.5): -0.746
cAMP reporter score ([1]; pH 6): -0.289
cAMP reporter score ([1]; pH 6, modulator: ogerin): -0.691

F69P
cAMP reporter score ([1]; pH 5.5): -0.414
cAMP reporter score ([1]; pH 6): -1.13
cAMP reporter score ([1]; pH 6.5, modulator: ogerin): -0.673

F69Q
cAMP reporter score ([1]; pH 5.5): -0.516
cAMP reporter score ([1]; pH 6): -0.617
cAMP reporter score ([1]; pH 6, modulator: ogerin): -1.13
cAMP reporter score ([1]; pH 6.5, modulator: ogerin): -1.61
surface expression score [2]: -2.31

F69R
cAMP reporter score ([1]; pH 5.5): -0.342
cAMP reporter score ([1]; pH 6, modulator: ogerin): -0.767
cAMP reporter score ([1]; pH 6.5, modulator: ogerin): -0.961
surface expression score [2]: -0.831

F69S
cAMP reporter score ([1]; pH 5.5): 0.401
cAMP reporter score ([1]; pH 6): -0.957
cAMP reporter score ([1]; pH 6, modulator: ogerin): -0.478
cAMP reporter score ([1]; pH 6.5, modulator: ogerin): -1.03
surface expression score [2]: -1.15

F69T
cAMP reporter score ([1]; pH 5.5): -0.343
cAMP reporter score ([1]; pH 6): -0.361
cAMP reporter score ([1]; pH 6, modulator: ogerin): -1.27
cAMP reporter score ([1]; pH 6.5, modulator: ogerin): -0.629
surface expression score [2]: -0.896

F69V
cAMP reporter score ([1]; pH 5.5): 0.102
cAMP reporter score ([1]; pH 6): -1.43
cAMP reporter score ([1]; pH 6, modulator: ogerin): -1.13
cAMP reporter score ([1]; pH 6.5, modulator: ogerin): -0.717
surface expression score [2]: 1.02

F69W
cAMP reporter score ([1]; pH 5.5): -0.642
cAMP reporter score ([1]; pH 6): -0.899
cAMP reporter score ([1]; pH 6, modulator: ogerin): -1.46
cAMP reporter score ([1]; pH 6.5, modulator: ogerin): -1.31
surface expression score [2]: -0.033

F69Y
cAMP reporter score ([1]; pH 5.5): -0.699
cAMP reporter score ([1]; pH 6): -0.947
cAMP reporter score ([1]; pH 6, modulator: ogerin): -1.46
cAMP reporter score ([1]; pH 6.5, modulator: ogerin): -1.62
surface expression score [2]: -1.43

F69_Y70insGSG
cAMP reporter score ([1]; pH 5.5): -1.1
cAMP reporter score ([1]; pH 6): -1.54
cAMP reporter score ([1]; pH 6, modulator: ogerin): -0.704
cAMP reporter score ([1]; pH 6.5, modulator: ogerin): -0.847
surface expression score [2]: -3.05

F69del
cAMP reporter score ([1]; pH 5.5): -1.3
cAMP reporter score ([1]; pH 6): -0.561
cAMP reporter score ([1]; pH 6.5, modulator: ogerin): -0.395
surface expression score [2]: -1.89

Y70_I71del
cAMP reporter score ([1]; pH 5.5): -1.15
cAMP reporter score ([1]; pH 6): -1.5
cAMP reporter score ([1]; pH 6.5, modulator: ogerin): -1.03
surface expression score [2]: -2.52

I71_C72del
cAMP reporter score ([1]; pH 5.5): -2.06
cAMP reporter score ([1]; pH 6): -0.662
cAMP reporter score ([1]; pH 6, modulator: ogerin): 0.035
